{"source": "patent US20260242416A1", "about": "“ANTIMICROBIAL PEPTIDES” (priority 2023, published 2026)", "tested_on": "E. coli ATCC 25922, Salmonella Enteritidis, S. aureus ATCC 29213", "assay": "Broth microdilution, panel result (at least one / all strains), Example 2", "format": "cell-based", "details": "at least one of E. coli ATCC 25922, Salmonella Enteritidis, or S. aureus ATCC 29213", "experimental": "The antimicrobial activity of the putative AMPs was determined by a broth microdilution assay as described by the Clinical and Laboratory Standards Institute, with the published adaptations for testing of cationic peptides. Escherichia coli 25922 and Staphylococcus aureus 29213 isolates were purchased from the American Type Culture Collection (ATCC; Manassas, VA, USA). A human clinical isolate of Salmonella enterica serovar Enteritidis was provided by the BC Centre for Disease Control. Bacteria from stocks stored at −80° C. were streaked onto nonselective Columbia blood agar with 5% sheep blood (Oxoid) and incubated overnight at 37° C. Next, 2-4 colonies were streaked onto a new agar plate to ensure uniform health of colonies used in the broth microdilution assay. Isolated colonies were suspended in MHB and the optical density was measured with a spectrophotometer to create an initial inoculum concentration of approximately 1×10^8 cfu/mL. The inoculum was diluted 1:250 to a final concentration of 2-8×10^5 cfu/mL, which was confirmed by performing a Total Viability Count (TVC). The TVC consisted of plating a 1:1000 dilution of the final inoculum on nonselective media and was also used to confirm the health and purity of the inoculum in each trial.\nLyophilized 80 μg peptide aliquots synthesized by GenScript (Piscataway, NJ, USA) were resuspended to 1.28 mg/mL with UltraPure water (Thermo Fisher Scientific, Waltham, MA, USA) and serially diluted in polypropylene 96-well microtiter plates (Greiner Bio-One #650261, Kremsmunster, Austria) from 128 down to 0.5 μg/mL. Two columns per plate were reserved for growth and sterility controls. Inoculum was added to the wells containing the peptide and the growth control. Plates were incubated for 20-24 h at 37° C. The minimum inhibitory concentration (MIC) was determined as the lowest peptide concentration where there was no visible bacterial growth.", "note": "Some of these results come from one statement about several compounds together. Where a SMILES comes first, the peptide text is derived from it."}
{"compound": "CC[C@H](C)[C@H](NC(=O)CN)C(=O)N[C@@H](Cc1ccccc1)C(=O)NCC(=O)NCC(=O)N[C@@H](Cc1c[nH]cn1)C(=O)N[C@@H](CC(C)C)C(=O)N[C@@H](CCCCN)C(=O)N[C@H](C(=O)NCC(=O)N[C@@H](CCCCN)C(=O)N[C@@H](CCCCN)C(=O)N[C@H](C(=O)N[C@@H](C)C(=O)N[C@@H](CS)C(=O)NCC(=O)N[C@@H](CC(C)C)C(=O)N[C@@H](CO)C(=O)NCC(=O)N[C@@H](CC(C)C)C(=O)N[C@@H](CS)C(=O)O)[C@@H](C)CC)C(C)C", "note": "[OdTo2] (H-GIFGGHLKVGKKIACGLSGLC-OH; N-terminus and C-terminus assumed)", "values": [{"measurement": "concentration exhibiting inhibitory activity against at least one strain", "result": "lower than 128 ug/mL"}]}
{"compound": "CC[C@H](C)[C@H](NC(=O)[C@H](CCCCN)NC(=O)[C@H](CCCCN)NC(=O)CNC(=O)[C@H](C)NC(=O)CNC(=O)[C@H](CC(C)C)NC(=O)[C@H](CC(C)C)NC(=O)CNC(=O)[C@H](CO)NC(=O)[C@H](CC(C)C)NC(=O)[C@H](CC(C)C)NC(=O)CN)C(=O)N[C@H](C(=O)N[C@@H](CS)C(=O)NCC(=O)N[C@@H](CC(C)C)C(=O)N[C@@H](CO)C(=O)NCC(=O)N[C@@H](CCSC)C(=O)N[C@@H](CS)C(=O)O)C(C)C", "note": "[OdMa3] (H-GLLSGLLGAGKKIVCGLSGMC-OH; N-terminus and C-terminus assumed)", "values": [{"measurement": "concentration exhibiting inhibitory activity against at least one strain", "result": "lower than 128 ug/mL"}]}
{"compound": "CC[C@H](C)[C@H](NC(=O)CN)C(=O)N[C@@H](CC(C)C)C(=O)N[C@@H](CC(=O)O)C(=O)N[C@H](C(=O)N[C@@H](CC(C)C)C(=O)N[C@@H](CCCCN)C(=O)N[C@@H](CCC(N)=O)C(=O)N[C@@H](CC(C)C)C(=O)NCC(=O)N[C@@H](CCCCN)C(=O)N[C@@H](C)C(=O)N[C@@H](C)C(=O)N[C@H](C(=O)N[C@@H](CCC(N)=O)C(=O)NCC(=O)N[C@@H](CC(C)C)C(=O)N[C@@H](CC(C)C)C(=O)N[C@@H](CO)C(=O)N[C@@H](CCCCN)C(=O)N[C@@H](C)C(=O)N[C@@H](C)C(=O)N[C@@H](CS)C(=O)N[C@@H](CCCCN)C(=O)N[C@@H](CC(C)C)C(=O)N[C@@H](C)C(=O)N[C@@H](CCCCN)C(=O)N[C@H](C(=O)N[C@@H](CS)C(=O)O)[C@@H](C)O)C(C)C)[C@@H](C)O", "note": "[AmMa1] (H-GILDTLKQLGKAAVQGLLSKAACKLAKTC-OH; N-terminus and C-terminus assumed)", "values": [{"measurement": "concentration exhibiting inhibitory activity against at least one strain", "result": "lower than 128 ug/mL"}]}
{"compound": "CC[C@H](C)[C@H](NC(=O)CNC(=O)[C@H](CO)NC(=O)[C@@H](NC(=O)[C@H](CC(C)C)NC(=O)CN)[C@@H](C)CC)C(=O)N[C@@H](CC(C)C)C(=O)NCC(=O)N[C@@H](C)C(=O)NCC(=O)N[C@@H](CCCCN)C(=O)N[C@@H](CCCCN)C(=O)N[C@H](C(=O)N[C@@H](CC(C)C)C(=O)N[C@@H](CS)C(=O)NCC(=O)N[C@@H](CC(C)C)C(=O)N[C@@H](CO)C(=O)NCC(=O)N[C@@H](CC(C)C)C(=O)N[C@@H](CS)C(=O)O)C(C)C", "note": "[OdMa10] (H-GLISGILGAGKKVLCGLSGLC-OH; N-terminus and C-terminus assumed)", "values": [{"measurement": "concentration exhibiting inhibitory activity against at least one strain", "result": "lower than 128 ug/mL"}]}
{"compound": "CC[C@H](C)[C@H](NC(=O)[C@H](CCCCN)NC(=O)[C@H](CCCCN)NC(=O)CNC(=O)[C@@H](NC(=O)CNC(=O)[C@H](CC(C)C)NC(=O)[C@@H](NC(=O)CNC(=O)[C@H](CO)NC(=O)[C@H](CC(C)C)NC(=O)[C@H](CC(C)C)NC(=O)CN)C(C)C)C(C)C)C(=O)N[C@H](C(=O)N[C@@H](CS)C(=O)NCC(=O)N[C@@H](CC(C)C)C(=O)N[C@@H](CO)C(=O)NCC(=O)N[C@@H](CC(C)C)C(=O)N[C@@H](CS)C(=O)O)C(C)C", "note": "[OdMa6] (H-GLLSGVLGVGKKIVCGLSGLC-OH; N-terminus and C-terminus assumed)", "values": [{"measurement": "concentration exhibiting inhibitory activity against at least one strain", "result": "lower than 128 ug/mL"}]}
{"compound": "CC[C@H](C)[C@H](NC(=O)[C@H](CO)NC(=O)[C@@H]1CCCN1C(=O)[C@H](CC(C)C)NC(=O)[C@@H](NC(=O)[C@H](CCCCN)NC(=O)[C@H](C)NC(=O)[C@H](C)NC(=O)[C@H](CC(C)C)NC(=O)CNC(=O)[C@H](C)NC(=O)[C@@H](NC(=O)[C@@H](NC(=O)[C@@H]1CCCN1C(=O)[C@H](CC(C)C)NC(=O)[C@H](Cc1ccccc1)NC(=O)[C@H](CCCNC(=N)N)NC(=O)[C@H](CCC(N)=O)NC(=O)[C@H](CCC(=O)O)NC(=O)[C@@H](N)CCC(=O)O)C(C)C)C(C)C)C(C)C)C(=O)N[C@H](C(=O)N[C@@H](CS)C(=O)N[C@@H](C)C(=O)N[C@H](C(=O)N[C@H](C(=O)N[C@@H](CCCCN)C(=O)N[C@@H](CCCCN)C(=O)N[C@@H](CS)C(=O)O)[C@@H](C)O)C(C)C)[C@@H](C)CC", "note": "[RaSy2] (H-EEQRFLPVVAGLAAKVLPSIICAVTKKC-OH; N-terminus and C-terminus assumed)", "values": [{"measurement": "concentration exhibiting inhibitory activity against at least one strain", "result": "lower than 128 ug/mL"}]}
{"compound": "CC[C@H](C)[C@H](NC(=O)CN)C(=O)N[C@@H](CC(C)C)C(=O)N[C@@H](CCCNC(=N)N)C(=O)N[C@@H](CO)C(=O)N[C@@H](CC(C)C)C(=O)NCC(=O)N[C@@H](Cc1c[nH]c2ccccc12)C(=O)N[C@H](C(=O)N[C@@H](CCC(N)=O)C(=O)N[C@@H](CCSC)C(=O)N1CCC[C@H]1C(=O)N[C@@H](CCCNC(=N)N)C(=O)N[C@@H](CO)C(=O)N[C@@H](CCCNC(=N)N)C(=O)N[C@@H](CCCNC(=N)N)C(=O)N[C@@H](CCCNC(=N)N)C(=O)N[C@@H](Cc1c[nH]cn1)C(=O)N[C@@H](CCCNC(=N)N)C(=O)O)[C@@H](C)CC", "note": "[AnFI2] (H-GILRSLGWIQMPRSRRRHR-OH; N-terminus and C-terminus assumed)", "values": [{"measurement": "concentration exhibiting inhibitory activity against at least one strain", "result": "lower than 128 ug/mL"}]}
{"compound": "CC[C@H](C)[C@H](NC(=O)[C@H](CC(C)C)NC(=O)[C@H](CCCCN)NC(=O)[C@H](CC(C)C)NC(=O)CNC(=O)CNC(=O)[C@H](CCCCN)NC(=O)[C@@H](NC(=O)[C@H](CC(C)C)NC(=O)[C@H](CCCCN)NC(=O)CNC(=O)[C@@H](NC(=O)[C@H](CC(C)C)NC(=O)CN)C(C)C)C(C)C)C(=O)NCC(=O)N[C@@H](Cc1c[nH]cn1)C(=O)N[C@H](C(=O)N[C@@H](C)C(=O)N[C@@H](CC(N)=O)C(=O)NCC(=O)O)C(C)C", "note": "[RaSi1] (H-GLVGKLVKGGLKLIGHVANG-OH; N-terminus and C-terminus assumed)", "values": [{"measurement": "concentration exhibiting inhibitory activity against at least one strain", "result": "lower than 128 ug/mL"}]}
{"compound": "CC[C@H](C)[C@H](NC(=O)CN)C(=O)N[C@@H](CC(C)C)C(=O)N[C@@H](CO)C(=O)NCC(=O)N[C@@H](CC(C)C)C(=O)N[C@@H](CC(C)C)C(=O)NCC(=O)N[C@@H](C)C(=O)NCC(=O)N[C@@H](CCCCN)C(=O)N[C@@H](CCCCN)C(=O)N[C@H](C(=O)N[C@H](C(=O)N[C@@H](CS)C(=O)O)C(C)C)[C@@H](C)CC", "note": "[OdMa4] (H-GILSGLLGAGKKIVC-OH; N-terminus and C-terminus assumed)", "values": [{"measurement": "concentration exhibiting inhibitory activity against at least one strain", "result": "lower than 128 ug/mL"}]}
{"compound": "CC[C@H](C)[C@H](NC(=O)[C@H](CCCCN)NC(=O)[C@H](CC(=O)O)NC(=O)[C@H](CC(C)C)NC(=O)[C@@H](NC(=O)CNC(=O)[C@@H](NC(=O)[C@H](CO)NC(=O)[C@H](Cc1ccccc1)NC(=O)[C@H](CC(N)=O)NC(=O)[C@H](CCCCN)NC(=O)[C@@H](NC(=O)CNC(=O)[C@H](CCC(=O)O)NC(=O)[C@H](CCCCN)NC(=O)[C@@H](NC(=O)[C@@H](NC(=O)[C@@H](NC(=O)[C@H](Cc1c[nH]c2ccccc12)NC(=O)[C@H](CC(C)C)NC(=O)CN)[C@@H](C)O)[C@@H](C)O)[C@@H](C)CC)C(C)C)C(C)C)C(C)C)C(=O)N[C@@H](CCCNC(=N)N)C(=O)N[C@@H](CS)C(=O)N[C@@H](CCCCN)C(=O)N[C@H](C(=O)N[C@H](C(=O)NCC(=O)NCC(=O)N[C@@H](CS)C(=O)O)[C@@H](C)O)[C@@H](C)CC", "note": "[PeNi14] (H-GLWTTIKEGVKNFSVGVLDKIRCKITGGC-OH; N-terminus and C-terminus assumed)", "values": [{"measurement": "concentration exhibiting inhibitory activity against at least one strain", "result": "lower than 128 ug/mL"}]}
{"compound": "CC[C@H](C)[C@H](NC(=O)[C@H](CO)NC(=O)[C@@H]1CCCN1C(=O)[C@H](CC(C)C)NC(=O)[C@@H](NC(=O)[C@H](CCCCN)NC(=O)[C@H](C)NC(=O)[C@H](C)NC(=O)[C@H](CC(C)C)NC(=O)CNC(=O)[C@H](C)NC(=O)[C@@H](NC(=O)[C@@H](NC(=O)[C@@H]1CCCN1C(=O)[C@H](CC(C)C)NC(=O)[C@@H](N)Cc1ccccc1)C(C)C)C(C)C)C(C)C)C(=O)N[C@H](C(=O)N[C@@H](CS)C(=O)N[C@@H](C)C(=O)N[C@H](C(=O)N[C@H](C(=O)N[C@@H](CCCCN)C(=O)N[C@@H](CCCCN)C(=O)N[C@@H](CS)C(=O)O)[C@@H](C)O)C(C)C)[C@@H](C)CC", "note": "[RaCa15] (H-FLPVVAGLAAKVLPSIICAVTKKC-OH; N-terminus and C-terminus assumed)", "values": [{"measurement": "concentration exhibiting inhibitory activity against at least one strain", "result": "lower than 128 ug/mL"}]}
{"compound": "CC[C@H](C)[C@H](NC(=O)CN)C(=O)N[C@@H](Cc1ccccc1)C(=O)NCC(=O)NCC(=O)N[C@@H](CC(C)C)C(=O)N[C@@H](CC(C)C)C(=O)N[C@@H](CCCCN)C(=O)N[C@@H](CCC(=O)O)C(=O)NCC(=O)N[C@@H](CCCCN)C(=O)N[C@@H](CCCCN)C(=O)N[C@H](C(=O)N[C@@H](C)C(=O)N[C@@H](CS)C(=O)NCC(=O)N[C@@H](CC(C)C)C(=O)N[C@@H](CO)C(=O)NCC(=O)N[C@@H](CC(C)C)C(=O)N[C@@H](CS)C(=O)O)[C@@H](C)CC", "note": "[OdTo3] (H-GIFGGLLKEGKKIACGLSGLC-OH; N-terminus and C-terminus assumed)", "values": [{"measurement": "concentration exhibiting inhibitory activity against at least one strain", "result": "lower than 128 ug/mL"}]}
